Assay results reported in paper PMC12136788.
This is one part of the list.

T1: UNK ZnF1-3 (human, UniProt Q9C0B0 31-174)
T1 sequence: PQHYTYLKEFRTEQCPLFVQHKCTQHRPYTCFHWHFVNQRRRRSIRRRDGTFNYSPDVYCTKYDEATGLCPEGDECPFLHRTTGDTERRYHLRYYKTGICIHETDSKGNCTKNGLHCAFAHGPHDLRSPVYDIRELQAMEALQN

B1: chr7:117129726:117129727:-_ENSMUSG00000047554_ENSMUST00000119929|mus_hu|FALSE|FALSE (ssRNA)
RNA: GGGAGUUCUACAGUCCGACGAUCCUUACUACGCCGAAGCGCCACGGCUAGAGCCACUUCCGGCGCGACCUCCUCACCCGAGACGACCUCAGCCCAGCGAGUACUGCAACCUCCUGCAAACACCCGCAGCGCCCACCACAGGCUCAACAGAGGAUUGAGCAUCA
B2: chr21:27062186:27062187:+_ENSG00000154721_ENST00000480456|hu_hu|FALSE|FALSE (ssRNA)
RNA: GGGAGUUCUACAGUCCGACGAUCACCCAGUUUCUUCCACUCUAAUCUGGAGGAAACAGUCUUCUUUGGGGUUUUGCAGGCUAAAAUAGCCUCUUGGUACUCUACUGCUGUGACUACUUGUUGGUCUUUUGGGGCAGAAAACCCCAACAGAGGAUUGAGCAUCA
B3: chr12:112777701:112777702:+_ENSMUSG00000021282_ENSMUST00000166123|mus_hu|motif|central (ssRNA)
RNA: GGGAGUUCUACAGUCCGACGAUCCGGUCUCUGACAUGAAAAAAUUUUCGCCACUGAGGCUGUAAGCUUCUUGCUUGUAUGCGGUGUUUCCCCAAUACAGGUACCAAUGGCUGCGCAACAGCUCUGAAAGAAAAAGGGAAAGAACAACAGAGGAUUGAGCAUCA
B4: chr15:58001004:58001005:+_ENSG00000255529_ENST00000299638|hu_hu|motif|central (ssRNA)
RNA: GGGAGUUCUACAGUCCGACGAUCAUCUGUACCCACAUCAACUUCUGCAAUUGCUUUUUGCCUUAGCUUACAGUCGGAACGGACAGGGUUAAACAGUUCACUUUUUCUUCUAACUUCUUCACAUUCUGCAAUGGCAGCUUUCAGCAACAGAGGAUUGAGCAUCA
B5: chr1:95363388:95363389:-_ENSG00000117519_ENST00000538964|hu_hu|FALSE|FALSE (ssRNA)
RNA: GGGAGUUCUACAGUCCGACGAUCUCUGGGGUAGUCAUCCUGGUACUCGCCAUGAUACUCAUCAGGGUAUUCUGCCUGAUAAUCACUAUCACUGAUUUCCGAACCAUUUGUUCCUGUUCCUUGGCUUCCGUUGUGAAUGACAGGCAACAGAGGAUUGAGCAUCA
B6: chr14:31813938:31813939:-_ENSMUSG00000021917_ENSMUST00000162092|perfect_dup|FALSE|FALSE (ssRNA)
RNA: GGGAGUUCUACAGUCCGACGAUCAACUAUGUAGACAGUCCACCCAAACUGUUCAGCCACGUACCCGUAGAUAAACCCAACUAUUGCAGAAAAAAGAAUGAUCCCCUGAAACAUCUGUUCAGCUAGUUUCUGCCCCUUGUAAUCCAACAGAGGAUUGAGCAUCA
B7: chr9:64574521:64574522:-_ENSMUSG00000004771_ENSMUST00000172298|mus_hu|motif|central (ssRNA)
RNA: GGGAGUUCUACAGUCCGACGAUCACUGCCCUGAGAUGACGUAGAUCACUCUUAUUGCCCACAAGCAUGAUAACAAUGUUACGGUCAGCAUGAUCUCUCAGUUCUUUCAGCCAUCGCUCUACAUUUUCAUAUGUGAGAUGUUUACAACAGAGGAUUGAGCAUCA
B8: chr3:123074248:123074249:-_ENSMUSG00000028114_ENSMUST00000029759|mus_mus|motif|central (ssRNA)
RNA: GGGAGUUCUACAGUCCGACGAUCGAUAGUGCUAUCUCUCCCAAAGAGAUGAAGGCGUCUUCUACCAAGACAAAAAUGUUCGGUUAUAUGAAAAAUUUCUACUGGUUUUUCUAUAUUGCCAAUCUCAGGUUCUUCUGUGAUAAUCAACAGAGGAUUGAGCAUCA
B9: chr1:220276048:220276049:+_ENSG00000067704_ENST00000302637|hu_hu|hu_hu_hu_mus_True|98_98 (ssRNA)
RNA: GGGAGUUCUACAGUCCGACGAUCGCAAAUUGCCUGGUUGGCUGGAAUUGUCCAAGGCUGGGUGGUCCAAACUAAAACGCUAACAGGGGAUGAGGCAUCUGUAAGAGACUCCAACUUCGGAGGAGGUCUCAGGAGGGGGAAUCUCAACAGAGGAUUGAGCAUCA
B10: chr13:48835921:48835922:+_ENSG00000136156_ENST00000378565|hu_mus|motif|central (ssRNA)
RNA: GGGAGUUCUACAGUCCGACGAUCAUAUGGGCUAUACAAAUUAGUAACAUGAGUUGCUUCUUAAAUUCCAAACAUUUGUCGGAAAUCUUAUUACAGCAGAGGCCUAGGAUAUUAAAACAUCAAGGCUGAAAUCCUCUAAAGUAGCAACAGAGGAUUGAGCAUCA
B11: chr5:24309113:24309114:-_ENSMUSG00000028945_ENSMUST00000030787|mus_hu|FALSE|FALSE (ssRNA)
RNA: GGGAGUUCUACAGUCCGACGAUCUUUUAUUUACAAGUAUACAUUUAACACAAUGAAAUAAACACUGAUAUACUGAAGCCUAGUUAAUAGUAGUGUAACAAUAUGCAUCAUUUUGAUGAUUACAUUAUUUUAAACAACAAACUACAACAGAGGAUUGAGCAUCA
B12: chr2:198351390:198351391:-_ENSG00000144381_ENST00000345042|hu_hu|hu_hu_hu_mus_False|18_48 (ssRNA)
RNA: GGGAGUUCUACAGUCCGACGAUCUCAUUCCCACCCUCCACAGAAAGGCUGCUUCUGAACUCUCAUGUGGUGACACAGCGCUACAGUCCUGAUUUUAACAGAACAGUAGAGAUGCCUCCUCAGUGAUAGUUGAAAGCAGGACACCAACAGAGGAUUGAGCAUCA
B13: chr4:144460044:144460045:+_ENSG00000153147_ENST00000283131|hu_mus|hu_hu_hu_mus_False|8_8 (ssRNA)
RNA: GGGAGUUCUACAGUCCGACGAUCACGGUCCAUAGCCUGAAGAUCAACUUGCGGAUUCCAAUCUGAGUCAUAUAAAAUGACUACAUCAGCAGUUGCAAGAUUGAUGCCCAGACCACCAGCACGUGUGCUUAACAUGAAUACAAACAACAGAGGAUUGAGCAUCA
B14: 57657005_57657125_91_3pUTR_ENSMUSG00000062949_ENSMUST00000101527|mouse|control|control (ssRNA)
RNA: GGGAGUUCUACAGUCCGACGAUCUCGCGUCCGAGGCUGCGGGGUGCCAGGCUGGGCUCCGCUGGGCUGUCUGGGAAGGCGCCGUCCACAAAACACACUGCGGCGUGGGCCCGCGGCGCAAAGCGGACAGCUAGCUCGCCUGCCCAACAGAGGAUUGAGCAUCA
B15: chr9:7834011:7834012:-_ENSMUSG00000057367_ENSMUST00000074246|mus_mus|FALSE|FALSE (ssRNA)
RNA: GGGAGUUCUACAGUCCGACGAUCCAUGGCAUAGCUGCAGGGAUCCAUCCUUGAUGAGAAGUCUUCCACUGCUCUAGAAUUAAGAGGGCUAGAGCACAGGUUGGAGUGAAUGCCACCUCGUUCCAGAGGUGACGAAUGUGCAAACAACAGAGGAUUGAGCAUCA
B16: chr2:24646365:24646366:-_ENSMUSG00000036893_ENSMUST00000102938|mus_hu|FALSE|FALSE (ssRNA)
RNA: GGGAGUUCUACAGUCCGACGAUCUUAUUGAUUUCAUUGGAAACAGAACAAGAAAUGGUCAGAGCCAAAAGACUGCUCUUAAAACUGUCAAAAACAUUUUAACAGAAAAAAAUAAACAUGACUGCAUUAUGAAUGUUUUUAGAACAACAGAGGAUUGAGCAUCA
B17: chr4:140556289:140556290:+_ENSMUSG00000036622_ENSMUST00000037055|mus_mus|mus_mus_mus_hu_False|8_28 (ssRNA)
RNA: GGGAGUUCUACAGUCCGACGAUCGAUGGAGCUCACCAGGCCCCCUUUUGCCGUGCAGAACCCUGUGCGGGUCACCACUGCCAGGACGUGCGGUCCCACAUAGGCCCGGGCCUGCAGGAUGAGGGUCCCACAGAAGAGUGUGUGCAACAGAGGAUUGAGCAUCA
B18: 10437852_10437972_582_CDS_ENSMUSG00000027534_ENSMUST00000029047|mouse|control|control (ssRNA)
RNA: GGGAGUUCUACAGUCCGACGAUCUGUAGGUGUUGAAGGUCUGUCUUCCCAGUUCACUGCCUCAGGAUGCUGCUCUUCAGCCUCUCUUGGUCUAGCAGAAUACUCAAUGGAUGAAUCUGUCCCUGUAAAUUUAGUCCUAAUGAGCAACAGAGGAUUGAGCAUCA
B19: chr7:151048522:151048523:+_ENSG00000013374_ENST00000566856|hu_mus|hu_hu_hu_mus_True|8_28 (ssRNA)
RNA: GGGAGUUCUACAGUCCGACGAUCCUGUUUCUUAUUUAUUACGAUCUUGAUGUAAUUUUCUUGAAAUCCGAAAGUUUCAGCUAUUUGACACCUCAGGUCUCUACCAGUGAUGUGCAAGCGGGUCUCCAACAAGUUUUUCUUAUCCAACAGAGGAUUGAGCAUCA
B20: chr7:140404665:140404666:+_ENSG00000090266_ENST00000247866|hu_hu|hu_hu_hu_mus_False|1_88 (ssRNA)
RNA: GGGAGUUCUACAGUCCGACGAUCUGCUCCUACUCGUCCAGAGAGUUUACACCUUCAGUCCUCGUCAUCAGGAGGGAUUCCCAGUUCUUCAUCUGUCCACUGUGAAGGAUCUGGAUAUGAAAAGUGACCCAGCACAGCUUCUGACAACAGAGGAUUGAGCAUCA
B21: chr7:75932113:75932114:+_ENSG00000106211_ENST00000248553|hu_hu|hu_hu_hu_mus_False|38_88 (ssRNA)
RNA: GGGAGUUCUACAGUCCGACGAUCCUGCGACCACUCAUCGGGCAACCGGGGCAGCCCGAAAGCUUGAUCGAAGAGGCGGCUGUGUGCAGGGUACCAGCGGAAGGGGUGUUCCCAGCUCGGGCUCCGCAGCAGCGAGAAGGGCACCAACAGAGGAUUGAGCAUCA
B22: 57396970_57398484_344_3pUTR_ENSMUSG00000032306_ENSMUST00000034856|mouse|control|control (ssRNA)
RNA: GGGAGUUCUACAGUCCGACGAUCCUUCUCUGCCAGCUCCUUGUUAGGGUGUGCCUGGAUAGACAGGGCCGUGUCCACUGACAGUACUUUGAAGAGGAAGGGCAGCUUUCCAUUAAAGGUGUUUUUGACCUUUGAGCCCAAGCACAACAGAGGAUUGAGCAUCA

target: T1, UNK ZnF1-3; assay: nsRBNS (natural sequence RNA bind-n-seq); RBNS binding buffer (assumed for nsRBNS): 25 mM Tris pH 7.5, 150 mM KCl, 3 mM MgCl2, 0.01% Triton X-100, 500 ug/ml BSA, 20 U/ml SUPERase-In, 4 C; UNK is unkempt and MSI1 is Musashi-1; names of the RNAs are library labels; protein concentration not given here; high values mean tight binding

Binder	binding signal [enrichment R]
B1	0.927
B2	0.466
B3	1.54
B4	0.639
B5	0.483
B6	1.36
B7	0.702
B8	0.883
B9	2.98
B10	1.03
B11	0.582
B12	0.941
B13	0.87
B14	0.796
B15	1.1
B16	0.985
B17	1.26
B18	0.659
B19	0.63
B20	1.12
B21	1.53
B22	1.68
